# ChEMBL document CHEMBL4888484, “Replenishing the malaria drug discovery pipeline: Screening and hit evaluation of the MMV Hit Generation Library 1 (HGL1) against asexual blood stage Plasmodium falciparum ,using a nano luciferase reporter read-out” (2022)
# The campaign covered roughly 150,000 compounds. About 540 (0.36%) showed an effect of 50% or more. This is one part of the list.
# System: Plasmodium falciparum
# Test: Primary screen in NF54 nanoGlo assay, in single point, at 2uM, 72h; a lower Z score goes with more inhibition
# Format: functional, Erythrocyte
# Conditions: timepoint 72 hour
SMILES,% Inhibition [%],Z score
COC[C@H](C)N(C)C(=O)Nc1nncs1,-6,1.18
CC(C)C[C@H]1C(=O)NC(c2cn3cccc(F)c3n2)N1C (stereo partly drawn),10,-1.05
CC(C)(C)OC(=O)NC[C@@H](C(=O)N1CCC1)c1ccccc1,-10,1.64
CCN(Cc1cnn(C)c1)Cc1nc(C(F)(F)F)cs1,3,-0.5
CCCN1C(=O)N[C@@H](CC(=O)N2CCC(CCOC)CC2)C1=O,-11,1.36
NC(=O)Nc1ccccc1Br,-7,0.94
Cc1cc(C(=O)CN2C(=O)CCC2=O)c(C)n1-c1cccc(Cl)c1,10,-1.79
CCCCN(C)CCNC(=O)c1noc2c1COc1ccccc1-2,-10,1.91
CC(C)(C)OCc1cccc(NC(=O)N2CCn3c(n[nH]c3=O)C2)c1,-10,1
Cc1cc(F)ccc1[C@@H]1CCCN1S(=O)(=O)CC1(C#N)CCCC1,26,-2.93
Cc1nc(COc2cccc3c2OCCO3)oc1C,-4,0.5
Cc1nc(Cc2nc(-c3ccc(NC(=O)C(C)(C)C)cc3)cs2)cs1,-13,2.52
CC(=O)N1CCC(C(=O)Nc2ccc(-c3cc[nH]n3)cc2)CC1,-11,1.63
Cc1noc(C2CC2)c1C(=O)N1CCCC[C@@]12CCOC2,1,-0.1
O=C1CC[C@H](NCc2cscn2)CCN1Cc1ccccc1,0,-0.04
O=C(c1cnns1)N1CCN(Cc2ccc(Cl)s2)CC1,-9,1.15
O=C(c1cc(F)c(F)cc1F)N1CCC(n2ccnn2)CC1,-2,0.22
CCC[C@H](O)CN(Cc1ccccc1)Cc1c(C)nn(-c2ccccc2)c1Oc1ccccc1OC,-2,0.2
CCS(=O)(=O)C1CN(C(=O)c2cn(-c3ccccc3)c(=O)cc2OC)C1,-9,1.82
Cc1cc2nc(C)c(=O)n(CC(=O)NC[C@H]3CCCO3)c2cc1C,-1,0.16
O=C(Cn1c(=O)n(Cc2ccc3c(c2)OCO3)c(=O)c2sccc21)Nc1ccc(Cl)cc1F,38,-1.39
Cn1cc(-c2cc3n(n2)CCC(=O)N3CC(=O)NCCCN2CCOCC2)c2ccccc21,3,-0.54
Cn1c(=O)[nH]cc(CC(=O)N2CC(Oc3ccccc3F)C2)c1=O,-3,0.72
O=C(NCC1CCCCC1)C1CCN(Cc2nc3ccccc3[nH]2)CC1,-18,2.68
